Reference: PubChem BioAssay AID488969 (Vanderbilt High Throughput Screening Facility, 2010)
Over roughly 110,000 compounds, “z-score” has its median near -0.1; the highest 2% begin near 2. Some of the results follow. Calls of active or inactive are those of the source.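 Rule for the calls: active = z-score in the third read window above 3 or below -3; inactive = the rest.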

Each compound was assayed against Metabotropic glutamate receptor 8 (Rattus norvegicus) (UniProt P70579) (assay: mGluR8 Gi/Go-coupled signaling modulation – cell-based, rat, thallium flux, HTS, primary screen (AID 488969)). Conditions: HEK293 rat mGluR8, GIRK (G protein-gated inwardly rectifying potassium channel) thallium flux, FluoZin2; at 10 µM; stronger effect = higher value; submaximal glutamate (EC20) added with thallium.
UniProt P70579, sequence (P70579 whole entry, looked up): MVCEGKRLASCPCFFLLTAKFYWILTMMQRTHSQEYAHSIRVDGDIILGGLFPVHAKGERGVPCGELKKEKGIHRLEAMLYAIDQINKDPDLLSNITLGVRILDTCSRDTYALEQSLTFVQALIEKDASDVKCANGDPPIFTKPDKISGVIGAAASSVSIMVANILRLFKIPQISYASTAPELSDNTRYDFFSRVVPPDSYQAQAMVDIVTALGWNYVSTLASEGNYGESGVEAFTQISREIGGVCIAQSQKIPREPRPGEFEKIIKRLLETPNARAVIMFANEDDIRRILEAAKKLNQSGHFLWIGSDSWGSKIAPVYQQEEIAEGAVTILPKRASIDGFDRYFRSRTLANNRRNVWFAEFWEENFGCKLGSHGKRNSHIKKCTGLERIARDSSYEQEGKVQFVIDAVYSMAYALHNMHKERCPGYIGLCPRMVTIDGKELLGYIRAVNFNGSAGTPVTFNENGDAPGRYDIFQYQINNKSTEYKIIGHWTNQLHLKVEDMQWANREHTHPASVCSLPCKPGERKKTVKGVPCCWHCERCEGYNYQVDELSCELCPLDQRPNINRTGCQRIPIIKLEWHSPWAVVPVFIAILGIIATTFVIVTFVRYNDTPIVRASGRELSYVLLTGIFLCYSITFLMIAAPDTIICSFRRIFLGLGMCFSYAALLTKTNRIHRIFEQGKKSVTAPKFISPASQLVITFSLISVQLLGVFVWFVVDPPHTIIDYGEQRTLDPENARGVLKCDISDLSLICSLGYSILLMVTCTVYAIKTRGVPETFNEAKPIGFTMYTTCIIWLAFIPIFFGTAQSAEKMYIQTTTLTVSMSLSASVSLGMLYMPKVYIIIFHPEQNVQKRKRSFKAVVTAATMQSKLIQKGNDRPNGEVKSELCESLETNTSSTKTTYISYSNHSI
Work on `CCN1C=CC2=C(C#N)C(N)C(C#N)(C#N)C(c3ccccc3C(F)(F)F)C2C1` (stereo unspecified) yielded a z-score of -2.55. Compound `CC(Oc1ccc(Cl)cc1Cl)C(=O)NN=C1CCN(C)CC1` (stereo unspecified) has a z-score of -0.0448. `Cc1ccc(C(=O)NC2CC3CCC(C2)N3Cc2ccco2)cc1` (stereo unspecified) gave a z-score of 0.554. `CCC(C)(C)n1nnnc1C(c1ccc(C)cc1)N1CCN(C(=O)c2ccco2)CC1` (stereo unspecified) gave a z-score of 0.975. In the case of `Cn1nc(C(F)(F)F)c(C#N)c1N1CCN(c2ccc(F)cc2)CC1`, the z-score is reported as -2.54. Compound `CCSc1nnc(-c2cccs2)o1` has a z-score of 0.198. `CC(C)C1Cc2c(sc3[nH]c(=S)n(Cc4ccccc4)c(=O)c23)CO1` (stereo unspecified) was tested, and the z-score was active: 5.29. In the case of `CCCC1CCC(=C(C#N)C(N)=O)CC1` (stereo unspecified), the z-score is reported as 0.283. For `Cc1ccc(C(=O)NNC(=O)C2CCN(c3nc(C)cc(C)n3)CC2)cc1`, the z-score was -0.127. Work on `O=c1cc(CO)oc(CN2CCN(c3ccccc3)CC2)c1O` yielded a z-score of -0.094. In the case of `CCOC(=O)c1sc2ncn(/N=C/c3cccnc3)c(=O)c2c1C`, the z-score is reported as -0.233. `O=C(NCc1nnc2c3ccccc3c(-c3ccccc3)nn12)c1ccccc1Cl` was tested, and the z-score was -0.276. `O=C1CC(N(O)C2CC(=O)N(Cc3ccccc3)C2=O)C(=O)N1Cc1ccccc1` (stereo unspecified) was tested, and the z-score was -0.144. `C/C(=N\NC(=O)c1ccc(CSc2nncn2C)cc1)c1ccc(Cl)cc1` was tested, and the z-score was -0.0615. `COc1ccc(C2N(c3cc(C)on3)C(=O)C3CCCN32)cc1OC` (stereo unspecified) gave a z-score of -0.238. With `Cc1ccc(SCCNC(=O)/C=C/c2cccc([N+](=O)[O-])c2)cc1` the z-score was -0.493. For `CCCS(=O)(=O)N1CCCC(C(=O)NCc2ccc3c(c2)OCO3)C1` (stereo unspecified), the z-score was -0.106. Work on `CC1Cc2ccccc2N1C(=O)CCn1c(=O)oc2ccccc21` (stereo unspecified) yielded a z-score of -0.561. Compound `N#C/C(=N/Nc1ccccc1F)C(=N)N1CCOCC1` has a z-score of -0.131. `O=C(CN1CCN(C/C=C/c2ccccc2)CC1)Nc1cc([N+](=O)[O-])ccc1Cl` was tested, and the z-score was -0.0486. In the case of `C(=C\c1ccccc1)/C=N/N1CCN(c2ccccn2)CC1`, the z-score is reported as -0.106. With `CCc1nnc(NC(=O)CSc2nnc(-c3ccc(S(=O)(=O)N4CCCC4)cc3)n2CC)s1` the z-score was -0.659. In the case of `CCN(CC)C(=O)c1oc2ccc(S(=O)(=O)N3CCCCCC3)cc2c1C`, the z-score is reported as -0.0118. `Cc1cc(N/N=C/c2ccccc2Br)nc2ccccc12` gave a z-score of -0.682. Compound `COc1ccccc1N(CC(=O)NCC1CCCO1)C(=O)CCC(=O)Nc1nccs1` (stereo unspecified) has a z-score of -0.532. With `CNC(=O)/C(=C/c1ccc2c(c1)OCO2)NC(=O)c1ccc(Br)cc1` the z-score was 0.116. With `CCC(C)(C)n1nnnc1CN1CCN(C(c2ccccc2)c2ccccc2)CC1` the z-score was 0.0727. `CNC(=S)N=Nc1c(O)[nH]c2ccc(C(C)C)cc12` was tested, and the z-score was active: 5.56. Compound `Cn1c(Cc2c[nH]c3ccccc23)n[nH]c1=S` has a z-score of -0.255. `Fc1ccc(CNn2cnnc2SCc2ccc(F)cc2)cc1` gave a z-score of -0.127. Compound `COc1cccc(-c2csc(N3CCN(CC(=O)NNC(=O)c4ccc(Br)cc4)CC3)n2)c1` has a z-score of 0.0337. `COc1ccc2nc(NC(=O)CN(c3ccc(C)cc3)S(=O)(=O)c3c(C)nn(C)c3C)sc2c1` gave a z-score of 0.03. With `CN(C)N=C1c2cc(S(=O)(=O)N3CCOCC3)ccc2-c2ccc(S(=O)(=O)N3CCOCC3)cc21` the z-score was -0.229. Compound `NS(=O)(=O)c1ccc(NC(=O)NC2CCCCC2)cc1` has a z-score of 0.541. For `O=C(Nc1ccccc1-c1ccccc1)c1ccc(NC(=O)c2ccco2)cc1`, the z-score was -0.624. Work on `O=C(N1CCN(c2cccc(Cl)c2)CC1)C1(c2cccs2)CCOCC1` yielded a z-score of -0.822. `CC(C)(C)C(=O)COC(=O)c1ccccc1O` was tested, and the z-score was -0.0524. `Cc1ccc(NC(=O)Cn2nnc(C(=O)NCc3ccco3)c2N)cc1` showed a z-score of 0.0407. `CCC(=O)Nc1nnc(SCCOC)s1` showed a z-score of 0.214. Compound `CC(=O)c1ccc(NC(=O)c2cn(-c3ccccc3)nc2-c2ccncc2)cc1` has a z-score of -0.0209. In the case of `COc1ccccc1-c1nnc(Sc2nc([N+](=O)[O-])nn2C)o1`, the z-score is reported as 0.987. `CCOC(=O)c1nn(-c2ccccc2)c(-c2ccccc2)c1C(=O)c1ccccc1` gave a z-score of -0.133. `Cc1nn(Cc2ccccc2)c2sc(C(=O)N3CCN(Cc4ccc5c(c4)OCO5)CC3)cc12` showed a z-score of -0.287. `COC(=O)c1c(C(=O)OC)c2cccc3cc(-c4ccccc4)c4ccc1c4n32` was tested, and the z-score was -0.299. In the case of `COc1cnc(N(C)C)nc1Sc1ccc(Cl)cc1`, the z-score is reported as -0.095. For `O=C(CCc1ccccc1)NNC(=O)C12CC3CC(CC(C3)C1)C2`, the z-score was 0.672. With `O=C(Cn1nc(C(F)F)cc1C(F)F)NNC(=S)Nc1ccc(Cl)cc1` the z-score was -0.189. In the case of `Nc1ncnc2c1CCC2`, the z-score is reported as 0.328. Work on `Cc1csc(=Nc2ccccc2)n1CCO` yielded a z-score of -0.139. Compound `O=C(CN(C(=O)CNC(=O)c1cccs1)c1ccc2c(c1)OCCO2)NC1CCCC1` has a z-score of 0.818. `O=C(C1CCN(S(=O)(=O)N2CCC3(CC2)OCCO3)CC1)N1CCOCC1` was tested, and the z-score was -0.0498. `CC(C)C(C(=O)Nc1cccnc1)N1C(=O)c2ccccc2C1=O` (stereo unspecified) was tested, and the z-score was 0.0029. Compound `CCN1C(=O)c2cccc3c(S(=O)(=O)NCCc4c[nH]c5ccccc45)ccc1c23` has a z-score of 0.837. `Cn1c(=O)c2c(SCc3c(F)cccc3Cl)nc(CC(C)(C)C)nc2n(C)c1=O` was tested, and the z-score was 0.37. With `O=C(NC(=S)Nc1nc(-c2ccc(Br)cc2)cs1)c1cccnc1` the z-score was 0.00657. For `O=[N+]([O-])c1ccc(/C=N/N/C(=N/c2ccccn2)c2ccccn2)cc1`, the z-score was 0.00507.
